# In all, about 150,000 compounds went through this assay and about 540 (0.36%) showed an effect of 50% or more. Some of the results follow. Residues, ends and D or L forms follow the SMILES beside them. *: point of attachment. Propionyl = CCC(=O)*
# Tested on: Plasmodium falciparum
# Assay: Primary screen in NF54 nanoGlo assay, in single point, at 2uM, 72h; a lower Z score goes with more inhibition
# Format: functional, Erythrocyte
# Details: timepoint 72 hour
SMILES,% Inhibition,Z score
Oc1cc(CNCc2cnn3cccnc23)nc2ccc(F)cc12,-7%,1.17
CN(Cc1ccc(OCCN2CCN(C(=O)[C@H]3CCOC(C)(C)C3)CC2)cc1)Cc1ccc2ncccc2c1,-7%,1.25
C[C@](O)(CN1CCC(NCc2ccccc2)CC1)C(F)(F)F,-6%,0.96
CN1CCC(N2CCC(CNc3cncc(C(N)=O)n3)CC2)CC1,-15%,2.59
CCN(Cc1[nH]c2ccc(Cl)cc2c1C)CC1CCN(C2CCN(C)CC2)CC1,85%,-14.61
OC1CCN(C2CCN(Cc3ccc(C(F)(F)F)cc3F)CC2)CC1,-7%,1.16
Cc1nnc(NCc2cccnc2)c2nn(-c3ccccc3)c(C)c12,-7%,1.05
Nc1nc(NCC2(N3CCCCC3)CCCCC2)cc(C2CC(N)C2)n1 (centres undefined),8%,-1.39
Brc1ccc2[nH]c3c(c2c1)CCCC3NC1CCc2[nH]cnc2C1 (centres undefined),98%,-19.51
c1cc(OCCCN2CCOCC2)ccc1CN1C2CCNCC1CC2 (centres undefined),2%,-0.46
Cn1cc(-c2nc(C(=O)NC3CCN(c4ccc(C(F)(F)F)cn4)CC3)cs2)cn1,22%,-3.36
Nc1ccnc(-c2ccc(C(=O)N3CCCN(C4CCCCC4)CC3)cc2)c1,5%,-0.92
Cc1n[nH]c(C)c1CC(=O)NC1c2ccccc2CCC1CO (centres undefined),-5%,0.83
CCCc1cncnc1N1CCC(N2CCN(c3cnccn3)CC2)CC1,-3%,0.56
CO[C@@H]1C[C@H](CNc2ccncc2C#N)N(c2cc(N(C)C)ncn2)C1,-7%,1.36
Nc1nccnc1C(=O)Nc1ccc(-c2cnco2)cc1,-16%,3.42
N#Cc1cc(NC2CCN(Cc3cccnc3)CC2)nc2ccc(Cl)cc12,23%,-3.97
c1cncc([C@H](CNc2ncnc3cc[nH]c23)N2CCCCC2)c1,-4%,0.73
CCCN(Cc1ccc(C#N)cc1)S(=O)(=O)Cc1noc(C)n1,5%,-0.84
Cc1cc(C(F)(F)F)nc(CCNC(=O)NC[C@H]2CNCCO2)n1,-9%,1.31
CCOC1CC(C(=O)N2CCOC[C@@H]2CNC(=O)c2cncs2)C1 (some centres undefined),0%,0.08

SMILES,% Inhibition,Z score
Cc1ocnc1CNC[C@H](O)c1ccc(Cl)c(Cl)c1,94%,-18.67
CCC(C)(C)OC1CN(S(=O)(=O)c2c(C)oc(C)c2C(=O)O)C1,-5%,0.74
CCc1nsc(N2C[C@H](COCC(=O)N(C)C)OC(C)(C)C2)n1,-11%,2
Oc1nc2ccccc2cc1CNCCNc1ncccc1C(F)(F)F,5%,-0.74
CCN(CC)c1ccc(Nc2cc(C)ncn2)cc1,-10%,1.69
CC1CCCCN1C(=O)CN1CCN(CCC2CCCN(C(=O)OC(C)(C)C)C2)CC1 (centres undefined),-1%,0.22
Cc1nc(C(C)(C)NCc2ncnn2CC(C)C)no1,-8%,1.49
CN(C)Cc1cc(NCc2csc3ccc(Cl)cc23)ncn1,3%,-0.51
C[C@H]1CC(=O)N(Cc2ccc(Br)c3cccnc23)C1=O,-5%,1
C[C@H]1C(=O)N(C)CCN1C(=O)c1cccc(-c2ccc3c(ccn3C)c2)c1,1%,-0.27
c1ccc(Oc2cccc3[nH]ccc23)cc1,-3%,0.68
CNS(=O)(=O)c1cc(-c2cc3c(cc2CO)OCCO3)ccc1C,-5%,0.94
Cc1cccc2[nH]c(CN(C)C(=O)[C@H]3CCCN(C4CCN(C)CC4)C3)nc12,4%,-0.74
Cn1cc(O[C@@H]2CCC[C@@H]2NC2CCN(c3ccncc3)CC2)cn1,10%,-1.58
COc1ccc(Nc2ccccc2C(=O)NCCN2CCS(=O)(=O)CC2)cc1,3%,-0.51
Cc1nn(CCNC(=O)N2CCC(c3nc(C(C)C)no3)CC2)c(C)c1C,2%,-0.4
c1ccc2c(CN3CC(n4c(C5CC5)nc5ccccc54)C3)ccnc2c1,0%,-0.03
C[C@]1(CCc2ccccc2)CCN(Cc2ncccc2C(=O)O)C1,0%,0.09
CNc1ncc(-c2cc(C(=O)N3CCN(C)C(=O)[C@@H]3C)c3ccc(F)cc3n2)cn1,-4%,0.62
CCOc1cccc2cc(C(=O)Nc3ccccc3-c3nc4ccccc4[nH]3)oc12,-7%,1.12
O=C(c1ccnc2ccccc12)N(Cc1cc2ccccc2o1)Cc1ccccc1-c1ccccc1,-1%,0.16

SMILES,% Inhibition,Z score
CCC(=O)NCC(=O)N[C@@H](C)C(=O)NC (Propionyl-Gly-Ala-NHMe),-9%,1.55
CNC(=O)[C@H](Cc1c[nH]c2ccccc12)NC(=O)Nc1cccc2cnccc12,-3%,0.55
CCn1ccnc(N2CCC(NCc3cc(-c4ccccc4)ccc3OC)CC2)c1=O,1%,-0.25
Cn1nc(CNc2nc(N)nc3c2CCNCC3)c2c(Cl)cccc21,4%,-0.65
c1ccc(-c2ncn(Cc3cc(C4CC4)[nH]n3)c2-c2ccoc2)cc1,-2%,0.35
CN(C(=O)C[C@H](n1cccn1)C(F)(F)F)c1ncc(Br)cn1,9%,-2.02
CCCCc1nc(CNCCCc2nc3cc(Cl)ccc3[nH]2)c[nH]1,0%,-0.03
c1ccc(-c2nc(N3CCC(c4ncc[nH]4)CC3)c3ccccc3n2)cc1,4%,-0.96
CN1CCN(C2CN(C(=O)Nc3cccc(-c4c[nH]cn4)c3)CC2O)CC1 (centres undefined),-12%,2.11
OCCOCCCNc1ncc(Cl)c(NCCCOCCO)n1,7%,-1.37
C[C@H]1CN(c2ccc(CNCc3nc(-c4cnn(C)c4)cs3)cn2)CCO1,-8%,1.76
COc1ccc2cc([C@@H]3CN(c4ncnc5[nH]cnc45)CCO3)ccc2c1,2%,-0.24
FC(F)(F)CN1CCC(CNc2ncnc3ccncc23)CC1,-7%,1.54
CCNC(=O)c1cc(=O)c2cc(Br)ccc2[nH]1,-3%,0.41
O=C(Nc1cccc(-n2cccn2)c1)[C@H]1CCCN(C2CCN(Cc3ccco3)CC2)C1,-1%,0.12
O=C1C[C@H](c2ccc(C(F)(F)F)cc2)c2c(Nc3ccccc3)n[nH]c2N1,10%,-1.73
Clc1ccc(-c2nc(COc3ccc4ncccc4c3)co2)cc1,3%,-0.61
CCn1cc(CN2CCN(C(=O)c3cc(-c4ccc(OC(F)F)cc4)[nH]n3)CC2)c(C)n1,6%,-0.97
CCOc1ccc(Nc2nc(-c3cn4ncc(-c5ccccc5)c4nc3C)ns2)cc1,-4%,0.75
NC(=O)CN1CCc2ccc(NC(=O)c3cc(-c4ccc(F)cc4)[nH]n3)cc2C1,-9%,1.7
C[C@H]1C[C@@H](c2nc(-c3ccnc(OCCN(C)C)c3)no2)CCN1C,2%,-0.3

SMILES,% Inhibition,Z score
COC[C@@H](O)CNC(c1cc(F)c(F)c(F)c1)c1cc(F)c(F)c(F)c1,3%,-0.53
O=C(N[C@@H](Cc1ccccc1)CN1CCOCC1)c1cc(F)cc2nc[nH]c12,-1%,0.17
O=C(c1cncc(NCC[C@H]2CCCCN2C2CCCC2)n1)N1CCOCC1,-4%,0.71
COc1cc2c(cc1CN(C)Cc1ccnc3ccccc13)OCO2,-5%,1.09
O=C(Nc1ccccc1Cl)c1ccccc1Nc1ncc(-c2ccc(Cl)cc2)s1,-10%,1.58
COc1cnc(CN2CC3CN(C4CCCC4)CC3(C(=O)O)C2)cc1O (centres undefined),3%,-0.47
COc1ccc(-c2cccc(C(=O)N3CCNCC3)c2)cc1C(F)(F)F,-6%,1.34
CCN1CCN([C@H]2CCN(c3ccnc4ccncc34)C2)CC1,96%,-14.59
Cc1cc(N2CCC[C@H](Nc3ncnc4cc(Cl)ccc34)C2)n(C)n1,-20%,3.45
CCc1noc(CCN[C@@H](C)CS(C)(=O)=O)n1,-1%,0.12
FC(F)(F)Cn1cnc([C@@H]2COCCN2c2ncnc3sc(-c4ccccc4)cc23)n1,-14%,2.09
Cc1cc(=O)n(CCN2CCN(C(=O)c3ccc[nH]3)CC2)c(=O)[nH]1,-9%,1.92
CN(CC(=O)N[C@H]1CCCN(c2cnccn2)C1)C1CCNCC1,-7%,1.05
Nc1nccc(C2CCN(c3ncnc4cc(F)ccc34)CC2)n1,-8%,1.69
Cc1cnccc1NCCNC(=O)[C@]1(C)CCc2c(C)c(O)c(C)c(C)c2O1,1%,-0.24
O=C(CN1CCN(c2ncnc3sccc23)CC1)N1CCN(Cc2c(F)cccc2Cl)CC1,-9%,1.33
Cc1sc2ncnc(Nc3cccc(C(F)(F)F)c3)c2c1-c1ccc(Cl)cc1,-9%,1.35
CC1(NC(=O)Nc2ccnc(OCC(F)(F)F)c2)CCOCC1,-9%,1.42
COc1ccccc1Nc1nn(CN(CCN(C)C)Cc2ccc(C#N)cc2)c(=S)s1,-10%,1.64

# From ChEMBL document CHEMBL5308541, “MAIP: An Open-Source Tool to Enrich High-Throughput Screening Output and Identify Novel, Druglike Molecules with Antimalarial Activity” (ACS Med Chem Lett, 2023)
